The list shows a part of the results. These are further read-outs of the screen, such as a control signal, another cell line or another target. No call is given for them.
How the values were obtained:
Test in all cases: Primary Screen for Target Class Profiling of Small Molecule Inhibitors of Methyltransferases
[1] = biological target: Glycine N-methyltransferase (Homo sapiens) (UniProt Q14749); details: purified enzyme, MTase-Glo SAH luminescence; measured here: GNMT inhibition; at 40 µM; stronger effect = lower value
In short: (§1)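 Each enzyme was assayed with SAM and its substrate. SAH formation detected by MTase-Glo luminescence; single-point 40 uM screen[…].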

[2] = biological target: Guanidinoacetate N-methyltransferase (Homo sapiens) (UniProt Q14353); details: purified enzyme, MTase-Glo SAH luminescence; measured here: GAMT inhibition; at 40 µM; stronger effect = lower value
In short: as §1

[3] = biological target: Histamine N-methyltransferase (Homo sapiens) (UniProt P50135); details: purified enzyme, MTase-Glo SAH luminescence; measured here: HNMT inhibition; at 40 µM; stronger effect = lower value
In short: as §1

[4] = biological target: Nicotinamide N-methyltransferase (Homo sapiens) (UniProt P40261); details: purified enzyme, MTase-Glo SAH luminescence; measured here: NNMT inhibition; at 40 µM; stronger effect = lower value
In short: as §1

[5] = biological target: Phenylethanolamine N-methyltransferase (Homo sapiens) (UniProt P11086); details: purified enzyme, MTase-Glo SAH luminescence; measured here: PNMT inhibition; at 40 µM; stronger effect = lower value
In short: as §1
On the % scale 0 is the no-effect control and ±100 the full control effect.

| SMILES | activity change, negative = inhibition [1] [%] | activity change, negative = inhibition [2] [%] | activity change, negative = inhibition [3] [%] | activity change, negative = inhibition [4] [%] | activity change, negative = inhibition [5] [%] |
| --- | --- | --- | --- | --- | --- |
| Cc1cccc(-c2n[nH]n3c2nc(=O)c2ccc(C(=O)NCc4ccccc4)cc23)c1 | -19.2 | 4.84 | -5.49 | -3.58 | -6.73 |
| CCC(C)NC(=O)c1ccc2c(=O)n(Cc3ccccc3)c3nn(Cc4ccccc4Cl)c(=O)n3c2c1 (stereo not drawn) | 3.47 | 0 | 0.409 | 5.92 | -1.51 |
| CCCN1C(=O)c2c(C(=O)NCCc3ccccc3C)ncn2CC1(C)C(=O)NCCC(C)C (stereo not drawn) | -2.41 | 3.63 | -5.23 | -4.62 | -0.768 |
| O=C(Nc1ccn[nH]1)c1c(F)cccc1F | 1.44 | 9.34 | 1.59 | -13.1 | -10.9 |
| C=C1CC[C@@H]2[C@](C)(CO)[C@H](O)CC[C@@]2(C)[C@@H]1CC(=O)C1=CCOC1=O | 0 | -16.8 | 6.16 | -29.5 | -12.7 |
| C/C=C(/C)C(=O)OC1CC(C)(C)CC2C3=CCC4C5(C)CCC(O[C@@H]6O[C@H](C(=O)O)[C@@H](O)[C@H](O)[C@H]6O[C@@H]6O[C@H](CO)[C@H](O)[C@H](O[C@@H]7OC[C@H](O)[C@H](O)[C@H]7O[C@@H]7O[C@H](CO)[C@@H](O)[C@H](O)[C@H]7O)[C@H]6O)C(C)(C)C5CCC4(C)C3(C)C(O)C(O)C12CO (stereo partly drawn) | 2.34 | -3.49 | 6.94 | -15.8 | 3.04 |
| CN(C)C[C@@H]1CN(S(C)(=O)=O)C[C@H]1NC(=O)c1ccc2[nH]ccc2c1 | -5.3 | -12 | -4.76 | -12.2 | -10.4 |
| CCOC(=O)c1cc2n(n1)CC(C)(C(=O)NCc1ccccc1OC)N(c1ccccc1CC)C2=O (stereo not drawn) | 5.74 | 4.07 | 11.9 | 7.54 | 5.75 |
| CCn1c(C2CCCN(S(=O)(=O)c3cccc4nonc34)C2)nn(C)c1=O (stereo not drawn) | -2.12 | -5.3 | 0.137 | -9.18 | -10.9 |
| COc1cccc(CC(=O)N[C@@H]2C[C@H](Cn3cc(-c4cccnc4)nn3)[C@@H](O)[C@H]2O)c1 | -8.07 | -8.15 | -6.31 | -14.1 | -11.2 |
| COc1ccc(CNC(=O)Cn2nc3n(CCCOC(C)C)c(=O)c4ccccc4n3c2=O)cc1 | 4.37 | 2.12 | 7.03 | 1.71 | 4.7 |
| Cc1ccc(C(=O)/C=C/c2ccccc2)s1 | – | -4.58 | – | -19.1 | -1.49 |
| CC(C)NC(=O)c1ccc2c(=O)n(C(C)C)c3nn(Cc4ccc(N5CCCC5=O)cc4)c(=O)n3c2c1 | 3.94 | 1.08 | 3.8 | -1.17 | -0.725 |
| COC(=O)c1ccc(NS(=O)(=O)c2ccc3c(c2)n(C)c(=O)n3C)cc1 | -0.126 | 0 | 12.5 | 15.2 | 2.72 |
| Cc1cc(C)cc(N2C(=O)c3ccccc3CC2(C)C(=O)NCc2ccccc2C)c1 (stereo not drawn) | 8.35 | 3.75 | 10.1 | 7.58 | 11.7 |
| COc1ccc(CN2C[C@@H](CO)[C@H](c3ccccn3)C2)cc1C | -4.14 | 0.916 | -12.5 | -4.01 | -3.18 |
| Cc1ccc2n1CCN(C(=O)Nc1ccc(F)c(Cl)c1)C2C(C)C (stereo not drawn) | 3.16 | 0 | -3.96 | -4.42 | -1.2 |
| CCCn1c(=O)c2ccc(C(=O)NCC(C)C)cc2n2c(=O)n(CC(=O)NC(C)C)nc12 | 3.97 | 0 | 4.56 | 0.866 | 2.58 |
| CSC(N)=NCCC[C@H](N)C(=O)O | 0.083 | 8.07 | -0.567 | -1.84 | 8.29 |

| SMILES | activity change, negative = inhibition [1] [%] | activity change, negative = inhibition [2] [%] | activity change, negative = inhibition [3] [%] | activity change, negative = inhibition [4] [%] | activity change, negative = inhibition [5] [%] |
| --- | --- | --- | --- | --- | --- |
| CCOc1ccc(CNC(=O)Cn2ccc3cc(S(=O)(=O)N4CCCC4)ccc32)cc1 | -1.82 | -0.632 | 2.49 | -4.91 | -0.964 |
| O=C(CCc1nnc2n(Cc3ccc(F)cc3)c(=O)c3ccccc3n12)N1CCN(c2ccccn2)CC1 | -19.9 | 0 | -2.55 | -15.8 | -0.196 |
| C=C1C(=O)OC2C=C(C)CC/C=C(\CO)CC(O)C12 (stereo not drawn) | -0.903 | 2.01 | 3.77 | -8.72 | 5.92 |
| O=C(N[C@@H]1CC[C@@H](c2cccc(F)c2F)CN(CC(F)(F)F)C1=O)N1CCC(n2c(=O)[nH]c3ncccc32)CC1 | -9.84 | -1.37 | -0.234 | -37.8 | -6.95 |
| Cc1ccc(C)c(C(=O)Cn2nc3n(CC(C)C)c(=O)c4ccc(C(=O)NCC(C)C)cc4n3c2=O)c1 | -0.784 | 5.53 | 2.05 | 4.55 | 2.53 |
| O=C(C1CC(=O)N(C2CC2)C1)N1CCC(Oc2cccnc2)CC1 (stereo not drawn) | -6.43 | -11 | -5.26 | -12.2 | -9.7 |
| CCC(C(=O)NCc1ccccc1OC)n1ccc2cc(S(=O)(=O)N3CCCCC3)ccc21 (stereo not drawn) | 6.47 | 0.237 | 4.84 | 4.19 | 3.15 |
| CCOc1ccc(C2CC(=O)Nc3c2c(C)nn3CC(=O)O)c(OCC)c1C (stereo not drawn) | -4.37 | -3.27 | -1.38 | -0.668 | 3.7 |
| COc1ccc(CC(=O)NC2CCN(c3nnc4cccc(C)n34)CC2)cc1 | -12 | -12.8 | -4.7 | -8.92 | -5.67 |
| NCCCC(N)(C(=O)O)C(F)F (stereo not drawn) | 1.29 | 13.5 | 8.61 | -1.4 | 7.79 |
| CCOC(=O)c1cc2n(n1)CC(C)(C(=O)NC1CCCC1)N(c1cccc(Cl)c1C)C2=O (stereo not drawn) | 1.14 | 0 | -0.572 | 4.88 | 3.72 |
| COc1cccc(CNC(=O)CCc2nnc3n(CC(C)C)c(=O)c4ccccc4n23)c1 | -7.86 | 0.967 | -1.73 | -3.41 | -5.1 |
| C=CCn1c(=O)c2ccc(C(=O)NC(C)C)cc2n2c(=O)n(CC(=O)N(C)c3ccccc3)nc12 | 7.71 | 1.19 | 7.5 | 2.34 | 6.73 |
| CN1C(=O)c2cc(C(=O)Nc3ccccc3Cl)nn2CC1(C)C(=O)NC1CCCCC1 (stereo not drawn) | 2.49 | 0 | 7.4 | 7.16 | 1.84 |
| Cc1ccc(CNC(=O)c2ccc3c(=O)nc4c(-c5cccc(F)c5)n[nH]n4c3c2)cc1 | -2.72 | 7.95 | 0.276 | 3.5 | 0.498 |
| NC(=O)C1(c2nc(C3CCOC3)nn2-c2cccc3cccnc23)CC1 (stereo not drawn) | -3.56 | -2.25 | -1.16 | -7.79 | -5.69 |
| Cn1c(=O)n(C)c2cc(S(=O)(=O)NCCCc3ccccc3)ccc21 | -0.116 | 2 | -1.28 | -2.82 | -1.98 |
| CC(C)NC(=O)C[C@@H]1O[C@H](CNCc2ccc(F)cc2)[C@@H](O)[C@H]1O | -4.51 | -6.32 | -2.87 | -8.1 | -3.41 |
